In all, about 16,000 compounds went through this assay and about 120 (0.75%) were called active. Inconclusive results (about 4%) are left out. The call rests on the fitted dose curve; in most records, active means well fitted inhibition curve with a large enough effect; inconclusive means small, poorly fitted or top-dose-only effect; inactive means no such curve, though single readings can be large or run the other way. The list shows a part of the results. Where a SMILES comes first, the peptide text is derived from it. Bridges are numbered along the chain shown (N, C = ends). [ ]: non-standard residue; d: D form. The star is where a group is joined. pGlu = O=C1CC[C@@H](C(=O)O)N1; X4 = CC[C@H](C)CCCCC(=O)*; Dab = NCC[C@H](N)C(=O)O
These compounds were tested against Rap guanine nucleotide exchange factor 3 (Homo sapiens) (UniProt O95398) (assay: Validation qHTS for antagonist of cAMP-regulated guanine nucleotide exchange factor 3 (EPAC1)). Conditions: EPAC1 Rap1B-BODIPY-GDP exchange, fluorescence; series mostly up to 150 µM; activity change, negative = inhibition: at the top concentration.
Chain of UniProt O95398 (O95398 whole entry, looked up): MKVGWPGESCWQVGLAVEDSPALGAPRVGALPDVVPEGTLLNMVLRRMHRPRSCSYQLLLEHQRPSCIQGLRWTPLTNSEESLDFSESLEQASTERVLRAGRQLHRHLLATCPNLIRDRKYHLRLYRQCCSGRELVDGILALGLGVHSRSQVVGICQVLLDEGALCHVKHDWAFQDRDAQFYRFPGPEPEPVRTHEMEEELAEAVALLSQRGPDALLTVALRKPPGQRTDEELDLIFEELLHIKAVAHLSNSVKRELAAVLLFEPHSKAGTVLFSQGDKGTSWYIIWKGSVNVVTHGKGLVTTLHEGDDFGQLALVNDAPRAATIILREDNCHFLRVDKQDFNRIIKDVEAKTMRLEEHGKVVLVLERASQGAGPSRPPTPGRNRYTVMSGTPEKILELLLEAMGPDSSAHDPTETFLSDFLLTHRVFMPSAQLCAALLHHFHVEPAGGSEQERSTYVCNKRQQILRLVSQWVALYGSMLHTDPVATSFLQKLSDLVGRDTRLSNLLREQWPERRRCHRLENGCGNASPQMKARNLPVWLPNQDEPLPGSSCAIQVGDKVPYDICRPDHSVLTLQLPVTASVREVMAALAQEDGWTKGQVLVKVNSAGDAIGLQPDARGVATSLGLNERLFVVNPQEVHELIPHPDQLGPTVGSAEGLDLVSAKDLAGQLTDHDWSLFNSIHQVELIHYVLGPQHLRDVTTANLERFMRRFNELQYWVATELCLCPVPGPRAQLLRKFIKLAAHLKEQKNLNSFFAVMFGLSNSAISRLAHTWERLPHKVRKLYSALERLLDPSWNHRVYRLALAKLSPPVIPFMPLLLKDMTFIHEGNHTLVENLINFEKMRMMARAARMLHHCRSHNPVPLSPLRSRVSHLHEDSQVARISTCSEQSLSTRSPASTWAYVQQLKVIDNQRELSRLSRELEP
How it was run: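 Nucleotide exchange followed as fluorescence loss when BODIPY-GDP leaves Rap1B (480 nm excitation, 540 nm emission), read at 5 min intervals over 30 min. Reaction: 100 nM EPAC1, 250 nM RAP1B-BODIPY-GDP, 50 uM GDP; ATA and DMSO define normalization.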
Further: nearly all actives have a fitted effect of over 75% in size.
Potency means the concentration at half of the fitted maximal effect.
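Wherever activity change, negative = inhibition is given: plate controls were DMSO for no effect and ATA control for full effect.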

Structure (SMILES) | activity change, negative = inhibition | Potency
COc1ccc(CN(CCN(C)C)c2ncccn2)cc1 | inactive: 14.6% | –
O=C(/C=C/c1cccc(F)c1)NC1CC1 | inactive: 5.73% | –
O=C(O)C[C@H]1c2cc(C(F)(F)F)ccc2S(=O)(=O)N1Cc1ccccc1 | inactive: 17.8% | –
CN1CCN(C(=O)C2CCCCC2)CC1 | inactive: 7.91% | –
Oc1ccc(C2CNCc3sccc32)cc1O (configuration not stated) | inactive: 1.51% [at 75.8 µM] | –
C[C@@H]1NS(=O)(=O)[C@H]2C[C@@H]3C=C[C@]2(O3)[C@H]1OC(=O)c1ccccc1Br | inactive: 1.08% | –
Cc1cc2c(OCC(CNC(C)(C)C)OC(=O)c3ccccc3)cccc2[nH]1 (configuration not stated) | inactive: 12.1% | –
COc1c2ccoc2cc2oc(C)cc(=O)c12 | inactive: -6.68% | –
CCNc1ncc2nc(-c3cc(F)cc(F)c3)c(=O)n(CCC#N)c2n1 | inactive: 9.19% | –
COc1ccc2[nH]cc(CCNc3nc(-c4ccccc4OC)nc4ccccc34)c2c1 | inactive: -4.34% | –
CCc1ccc(C=O)cc1 | inactive: 14.8% | –
O=C(c1cnccn1)N1CCC2(CC1)CN(c1ccccc1)C2 | inactive: 1.38% | –
CC(C)c1c(C(=O)NCc2cccnc2)cnn1-c1nccc(-c2cccs2)n1 | inactive: 0.817% | –
O=C(NCC1Cc2cc(F)cc(-c3cnccn3)c2O1)C1COc2ccccc2O1 (configuration not stated) | inactive: 14.7% | –
NC(=O)c1ccc[n+]([C@@H]2O[C@H](COP(=O)([O-])OP(=O)(O)OC[C@H]3O[C@@H](n4cnc5c(N)ncnc54)[C@H](O)[C@@H]3O)[C@@H](O)[C@H]2O)c1 | inactive | –
CN1CCN(c2ncc3nc(-c4cccc(C#N)c4)c(=O)n(C)c3n2)CC1 | inactive: 6.61% | –
COCC(=O)N1CCC2(CC1)CN(C(=O)Nc1ccccc1)C2 | inactive: 10.4% | –
CC(=O)O[C@H]1C[C@@H]2CC[C@@H]3[C@H](CC[C@@]4(C)[C@H]3C[C@H](N3CC[N+](C)(C)CC3)[C@@H]4OC(C)=O)[C@@]2(C)C[C@@H]1N1CC[N+](C)(C)CC1 | inactive: 31.4% | –
CSc1nc(N)c2ncn([C@H]3O[C@H](COP(=O)(O)OP(=O)(O)OP(=O)(O)O)[C@@H](O)[C@@H]3O)c2n1 | inactive: 5.39% | –
NCC(=O)CCC(=O)O | inactive: 15.1% | –
COc1cc2c(cc1OC)C1C(=O)c3c(cc4c(c3O)C=CC(C)(C)O4)OC1CO2 (configuration not stated) | inactive: -1.99% | –
COCCn1c(=O)c(-c2ccc(OC)cc2)nc2cnc(N3CCOCC3)nc21 | inactive: 41.6% | –
Cn1cccc1C(=O)N1CCC2(CC1)CN(C(=O)Nc1ccccc1)C2 | inactive: 20.8% | –

Structure (SMILES) | activity change, negative = inhibition | Potency
Cc1cnc(CNc2nc(-c3ccc4c(c3)OCO4)nc3ccccc23)cn1 | inactive: -32.1% | –
CCOC(=O)C1=C[C@@]2(CC)CCCN3CCc4c(n1c1ccccc41)[C@H]32 | inactive: -19.3% | –
NCCC(=O)c1ccccc1N | inactive: 16.6% | –
CC(C)(C)NCC(O)c1ccc(O)c(CO)n1 (configuration not stated) | inactive: 21.4% | –
CN(C)Cc1ccccc1 | inactive: 30.2% | –
O=C(CCCN1CCC(O)(c2ccc(Cl)cc2)CC1)c1ccc(F)cc1 | inactive | –
O=C(O)c1cc(O)c2c(c1)C(=O)c1cc(O)cc(O)c1C2=O | inactive: -11.7% | –
CCCCCCCCCCCCCCCC[n+]1ccc(C)c2ccccc21 | – | active: 63.1 µM
CC(=O)OCC(=O)[C@@]1(O)CCC2C3CC[C@H]4CC(O)CC[C@@]4(C)C3C(=O)C[C@]21C (some centres not stated) | inactive: 17.1% | –
CC(C)NC(=O)N1CCCC2(CCN(C(=O)c3cc(C(F)(F)F)cc(C(F)(F)F)c3)CC2)C1 | inactive: 4.35% | –
O=C1CCC[C@@H]2C[C@@]3(C[C@@H]4CCN1[C@H]24)Nc1cc(Cl)ccc1NC3=NCc1ccccc1 | inactive: -12.9% | –
C[C@@H]1CCC2[C@](C)(CO)C(O)CC[C@@]2(C)[C@@]12CC[C@](CO)(CCO)O2 (some centres not stated) | inactive: 17.2% | –
O=C(O)C[C@H](O)C[C@H](O)/C=C/c1c(C2CC2)nc2ccccc2c1-c1ccc(F)cc1 | inactive: 13.5% | –
CCNc1ncc2nc(C)c(=O)n(C3CC3)c2n1 | inactive: 8.44% | –
CC1=C(C(=O)O)N2C(=O)[C@@H](NC(=O)C(N)C3=CCC=CC3)[C@H]2SC1 (some centres not stated) | inactive: 3.21% [at 75.8 µM] | –
O=c1[nH]c2cc(Cl)ccc2c(O)c1-c1cccc(Oc2ccccc2)c1 | inactive: 0.192% | –
Cc1ccc(C)c(OCCCC(C)(C)C(=O)O)c1 | inactive | –
Cc1cc(/C=C/c2ccccc2)nc2ccccc12 | inactive: -6.16% | –
C[C@@H]1CCC2[C@@H](C)[C@@H](O)O[C@@H]3O[C@@]4(C)CC[C@@H]1[C@@]23OO4 (some centres not stated) | inactive: 18.5% | –
O=C1CCN(Cc2ccccc2)S(=O)(=O)c2c(F)cc(F)cc21 | inactive: -2.45% | –
C=CCN1CCc2c(cc(O)c(O)c2Cl)C(c2ccccc2)C1 (configuration not stated) | inactive | –
COc1ccccc1-c1ccc2ncnc(N3CCN(C)CC3)c2c1 | inactive: 8.73% | –
COC(=O)c1c(C)c2c(c(C)c1O)OC(=O)c1c(C)c(Cl)c(O)c(Cl)c1O2 | inactive | –

Structure (SMILES) | activity change, negative = inhibition | Potency
COc1cc(C(=O)N2CCCCCCC2)cc(OC)c1OC | inactive: 5.42% | –
COc1ccccc1CNc1ncnc2ccc(-c3ccccc3C#N)cc12 | inactive: -15.3% | –
Cc1cnc(-n2ncc(C(=O)NCc3ccncc3)c2C(C)C)nc1-c1ccc(F)cc1 | inactive: -8.92% | –
O=C(c1csnn1)N1CCC[C@@]2(CCN(Cc3nccs3)C2)C1 | inactive: 15.4% | –
Cc1ccccc1-c1ccc2ncnc(NCc3cccnc3)c2c1 | inactive: -13.9% | –
Cc1nc(NCc2ccc3nsnc3c2)sc1-c1ccn(C)n1 | inactive: -4.96% | –
CC1(C)C(=O)N(CCN2CCC(C(=O)c3ccc(F)cc3)CC2)c2ccccc21 | inactive: 9.05% [at 75.8 µM] | –
CCCCCc1ccc(-c2cn(Cc3ccc4c(c3)C(=O)c3ccccc3C4=O)nn2)cc1 | inactive: 9.51% | –
COc1cc(-c2ccc(C)cc2)cc2c1OCCN(C(=O)CCn1ccc(C)n1)C2 | inactive: 1.23% | –
O=C(OC1C[C@H]2CC[C@@H](C1)[N+]21CCCC1)C(O)(c1ccccc1)c1ccccc1 (some centres not stated) | inactive: 2.8% | –
COc1c(O)cc(O)cc1O | inactive: -7.42% | –
CCN(CC)CC1CCCCN1CC(=O)N1c2ccccc2C(=O)Nc2cccnc21 (configuration not stated) | inactive: 14.6% | –
CC#CCC(C)[C@H](O)/C=C/[C@@H]1[C@H]2C/C(=C/CCCC(=O)O)C[C@H]2C[C@H]1O (some centres not stated) | inactive: 3.43% | –
CC(C)CN(C[C@@H](O)[C@H](Cc1ccccc1)NC(=O)O[C@@H]1CCOC1)S(=O)(=O)c1ccc(N)cc1 | inactive: 9.26% | –
Cc1ccc(/C=N/n2c(-c3ccccc3)csc2=S)cc1 | inactive: 12.3% | –
CC(C)(C)[C@H]1CCC(=O)N([C@H](CN=[N+]=[N-])Cc2ccccc2)CC1 | inactive: -14.5% | –
COc1cc(=O)n2c(c1C(=O)NCc1ccco1)CCN(C(=O)c1cccnc1SC)CC2 | inactive: 1.19% | –
Cc1cnc(CNc2ncnc3ccc(-c4ccc(C(=O)N(C)C)cc4)cc23)cn1 | inactive: -8.65% | –
Cc1c(C(=O)N2CCC(Cc3ccccc3)CC2)sc2ncnc(NCc3ccccn3)c12 | inactive: -9% | –
O=C(Nc1ccccc1)OCC(CN1CCCCC1)OC(=O)Nc1ccccc1 (configuration not stated) | inactive: 8.98% [at 75.8 µM] | –
NC(=O)[C@@H]1C[C@]2(NC(=O)NC2=O)c2cc(F)ccc2O1 | inactive: 15.4% | –
COCCNc1ccnc(-c2ccccc2C)n1 | inactive: 11.3% | –
CC(C)C1=CC2=CC[C@H]3[C@](C)(C(=O)O)CCC[C@]3(C)C2CC1 (some centres not stated) | inactive: 0.812% | –

Structure (SMILES) | activity change, negative = inhibition | Potency
CO/N=C(\C(=O)N[C@@H]1C(=O)N2C(C(=O)O)=C(CSC(=O)c3ccco3)CS[C@H]12)c1csc(N)n1 | inactive: 22.9% | –
N[C@@H]1CCN(O)C1=O | inactive: 1.34% | –
CC(=O)Nc1ccc(OCC(O)CNC(C)C)cc1 (configuration not stated) | inactive: 10.3% | –
COc1ccc(Oc2ncc3nc(CCc4ccccc4)c(=O)n(C4CC4)c3n2)cc1 | inactive: -0.444% | –
O=C(c1csnn1)N1CCC2(CC1)CN(c1cccc(-c3ccccc3)c1)C2 | inactive: -8.07% | –
COc1ccc(-c2ccnc(-n3ncc(C(=O)NCc4ccon4)c3C3CC3)n2)cc1F | inactive: 13% | –
C#CCCCCCCCCCCCCCCCC(=O)O | inactive | –
C[N+](C)(C)CCC(=O)c1cccc2ccccc12 | inactive: 29.6% | –
N#CCCn1c(=O)c(-c2ccc(Cl)cc2)nc2cnc(N3CCOCC3)nc21 | inactive: 19.7% | –
CC[C@H](C)CCCCC(=O)N[C@@H](CCN)C(=O)N[C@H](C(=O)N[C@@H](CCN)C(=O)N[C@H]1CCNC(=O)[C@@H]([C@H](C)O)NC(=O)[C@H](CCN)NC(=O)[C@H](CCN)NC(=O)[C@H](CC(C)C)NC(=O)[C@@H](CC(C)C)NC(=O)[C@H](CCN)NC1=O)[C@@H](C)O (X4-[Dab]T[Dab][Dab][Dab][dL]L[Dab][Dab][dT]; lactam 4-C) | inactive: -8.49% [at 75.8 µM] | –
CC[C@H](C)[C@H](NC(=O)[C@H](Cc1ccccc1)NC(=O)[C@H](C)NC(=O)[C@H](CC(=O)O)NC(=O)[C@H](CCCCN)NC(=O)[C@H](CO)NC(=O)[C@@H]1CCCN1C(=O)[C@@H]1CCC(=O)N1)C(=O)NCC(=O)N[C@@H](CC(C)C)C(=O)N[C@@H](CCSC)C(N)=O ([pGlu]PSKDAFIGLM-NH2) | inactive: 10.8% | –
C[C@@H]1O[C@@H](OC[C@H]2O[C@@H](Oc3c(-c4ccc(O)c(O)c4)oc4cc(O)cc(O)c4c3=O)[C@H](O)[C@@H](O)[C@@H]2O)[C@H](O)[C@H](O)[C@H]1O | inactive: 19.2% | –
COC(=O)/C=C/c1cc(F)ccc1S(=O)(=O)Nc1ccccc1 | inactive: -17.2% | –
C[C@@H]1CN(Cc2ccc3c(c2)CN(Cc2nc(-c4ccccc4)cs2)CCO3)C[C@H](C)O1 | inactive: -6.26% | –
Cc1noc(C)c1C(=O)N1CCC[C@@]2(CCN(c3ccccc3)C2)C1 | inactive: 4.29% | –
CC(=O)N1CCC[C@H]1C(=O)NCC1Cc2cc(-c3cnccn3)cc(Cl)c2O1 (some centres not stated) | inactive: 8.73% | –
COCCn1c(=O)c(-c2cc(F)cc(F)c2)nc2cnc(N3CCNCC3)nc21 | inactive: 9.7% | –
CCCC(=O)Nc1ccc(OCC(O)CNC(C)C)c(C(C)=O)c1 (configuration not stated) | inactive | –
COc1ccc(Oc2ncc3nc(CCc4ccccc4)c(=O)n(C[C@H]4CCCO4)c3n2)cc1 | inactive: 5.27% | –
N=C(N=C(N)N)N1CCOCC1 | inactive: 1.48% [at 75.8 µM] | –
Nc1ccn([C@@H]2O[C@H](CO)[C@@H](OP(=O)(O)O)[C@H]2O)c(=O)n1 | inactive: 8.02% | –
c1ccc(CNc2nc(-c3cccnc3)nc3ccccc23)cc1 | inactive: -2.41% | –
C[C@H](O)CO[C@H]1[C@H]2O[C@H]3[C@H](O)[C@@H](O)[C@@H](O[C@H]4[C@H](O)[C@@H](O)[C@@H](O[C@H]5[C@H](O)[C@@H](O)[C@@H](O[C@H]6[C@H](O)[C@@H](OC[C@H](C)O)[C@@H](O[C@H]7[C@H](O)[C@@H](OC[C@H](C)O)[C@@H](O[C@H]8[C@H](O)[C@@H](O)[C@@H](O[C@@H]([C@@H]1O)[C@@H](CO)O2)O[C@@H]8CO)O[C@@H]7CO)O[C@@H]6CO)O[C@@H]5CO)O[C@@H]4CO)O[C@@H]3CO | inactive: -12.1% | –
